Experimental data: patent US20260048100A1
Where two headings read alike, the source gives them in different places.

Tests used:
[1] = target: receptor of IL-15 on the target cell (Mo7e cells); experiment: cell-based or functional assay
[2] = target: receptor of IL-15 on the target cell (Mo7e cells); experiment: cell-based or functional assay; remark: listed apart in the source

| EC50, Mo7e cell proliferation (CCK-8) [1] | EC50, Mo7e cell proliferation (CCK-8) [2] [nM] | fold recovery of Mo7e proliferation activity against the uncleaved protein [1] [fold] | Binder |
| --- | --- | --- | --- |
| 0.69 nM | 2.74 | – | LH02 fusion protein (Fc fusion) [human IgG1 Fc with changes not listed]ITCPPPMSVEHADIWVKSYSLYSRERYICNSGFKRKAGTSSLTECVLNKATNVAHWTTPSLKCIRDPALVHQRPAPPSTVTTAGVSGGSGGGGSGGGSGGGGSLQ[about 120 residues not listed] |
| 0.0449 µg/mL | – | > 400 | LIC18 fusion protein after cleavage by urokinase (protein) ITCPPPMSVEHADIWVKSYSLYSRERYICNSGFKRKAGTSSLTECVLNKATNVAHWTTPSLKCIRDPALVHQRPAPPSTVTTAGVSGGSGGGGSGGGSGGGGSLQ[about 120 residues not listed]GSSGGSGGSGGSGLSGRSDNHGSSGGSGGSGGSG[human IgG4 Fc with S228P (EU numbers) not listed] |
